Experimental data taken from PMC4336329 (PLoS ONE, 2015).
Hit rate of the full screen: of about 310,000 compounds, about 14,000 (4.5%) showed an effect of 50% or more. The effect is printed as a negative number. The list shows a part of the results.

Molecular target: human ether-à-go-go-related gene (hERG) potassium channel (human, UniProt Q12809)
Assay: primary screen, population patch clamp on CHO cells stably expressing hERG
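Further: peak tail current of the secondary pulse compared with the same well before compound.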

Chain of human ether-à-go-go-related gene (hERG) potassium channel (Q12809 whole entry, looked up): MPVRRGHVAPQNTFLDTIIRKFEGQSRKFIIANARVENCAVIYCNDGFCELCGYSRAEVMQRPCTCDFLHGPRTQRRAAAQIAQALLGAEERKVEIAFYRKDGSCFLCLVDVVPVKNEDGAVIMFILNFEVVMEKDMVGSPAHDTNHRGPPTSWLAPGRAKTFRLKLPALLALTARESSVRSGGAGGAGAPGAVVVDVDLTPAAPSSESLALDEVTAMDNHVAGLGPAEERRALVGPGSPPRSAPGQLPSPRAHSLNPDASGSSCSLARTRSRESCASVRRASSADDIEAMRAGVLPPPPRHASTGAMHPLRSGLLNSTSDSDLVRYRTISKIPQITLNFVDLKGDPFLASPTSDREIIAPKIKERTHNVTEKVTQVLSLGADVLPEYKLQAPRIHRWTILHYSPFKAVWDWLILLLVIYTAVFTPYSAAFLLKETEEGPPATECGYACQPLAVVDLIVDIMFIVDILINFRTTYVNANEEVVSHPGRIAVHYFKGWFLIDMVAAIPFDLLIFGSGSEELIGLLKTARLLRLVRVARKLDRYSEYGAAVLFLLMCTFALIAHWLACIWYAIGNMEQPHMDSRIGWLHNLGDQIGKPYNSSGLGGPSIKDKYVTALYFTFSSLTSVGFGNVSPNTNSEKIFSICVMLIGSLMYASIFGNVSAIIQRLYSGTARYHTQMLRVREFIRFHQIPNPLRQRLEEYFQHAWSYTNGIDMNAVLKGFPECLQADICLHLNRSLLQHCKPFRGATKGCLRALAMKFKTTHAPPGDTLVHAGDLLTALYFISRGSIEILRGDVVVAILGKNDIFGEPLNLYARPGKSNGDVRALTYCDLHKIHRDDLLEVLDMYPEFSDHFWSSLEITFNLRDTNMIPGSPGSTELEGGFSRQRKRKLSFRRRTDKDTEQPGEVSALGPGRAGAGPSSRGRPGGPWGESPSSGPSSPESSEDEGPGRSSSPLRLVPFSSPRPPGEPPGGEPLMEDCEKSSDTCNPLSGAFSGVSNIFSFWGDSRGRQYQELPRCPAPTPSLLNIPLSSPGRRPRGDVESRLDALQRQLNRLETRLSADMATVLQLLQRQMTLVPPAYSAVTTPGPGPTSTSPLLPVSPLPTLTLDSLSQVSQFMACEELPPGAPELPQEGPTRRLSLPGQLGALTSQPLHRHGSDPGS

SMILES	hERG current change (%, negative = inhibition) at 10uM [%]
CSc1ccccc1NC(=O)c1cc2ncc(Br)cn2n1	-0.249
COc1ccccc1CNC(=O)C/C(C)=N/NC(=O)Cc1ccc(Cl)cc1	-2.38
CCOC(=O)c1ccc(NC(=O)Cn2nnc(-c3ccc(C)cc3)n2)cc1	6.15
CNC(=O)C(=O)NCC1OCCN1S(=O)(=O)c1ccc2c(c1)OCCO2 (stereo not shown)	5.89
COc1cnc(SCc2ccc(Cl)c(Cl)c2)nc1Cl	-4.29
COc1ccc(-c2nnc(SCC(=O)NC3CCCc4ccccc43)n2N)cc1 (stereo not shown)	-15.8
CCC1CCCCN1C(=O)Cn1c(=O)n(CCCC(=O)NCc2ccco2)c(=O)c2sccc21 (stereo not shown)	2
O=C(NCCSc1ncc(-c2ccc(F)cc2)[nH]1)c1ccc2c(c1)OCO2	-26.9
O=C1OCCC1Sc1nc2ccccc2[nH]1 (stereo not shown)	9.97
Cc1cccc(NC(=S)NC23CN4CN(CN(C4)C2)C3)c1C	16.9
CSCCC(NC(=O)c1cc(S(=O)(=O)N2CCOCC2)ccc1F)c1nc2ccccc2[nH]1 (stereo not shown)	-5.27
Cc1ccccc1NC(=O)c1cc(S(=O)(=O)Nc2cccc(C(=O)O)c2)ccc1Cl	39
COc1ccccc1N1CCN(C(=O)Cn2c(=O)[nH]c3ccsc3c2=O)CC1	-1.18
CCOc1nc(NCCO)nc(Nc2ccc([N+](=O)[O-])cc2)n1	-9.66
COc1ccc(S(=O)(=O)N2CCOC2CNC(=O)C(=O)NCCc2ccccc2)cc1OC (stereo not shown)	-1.05
CCOC(=O)C1CCN(S(=O)(=O)c2ccc(CN3C(=O)c4cccnc4C3=O)cc2)CC1	-9.61
Cc1cnc(C(=O)OC(C(=O)Nc2cc(C(F)(F)F)ccc2Cl)c2ccccc2)cn1 (stereo not shown)	-41.8
COc1ccc(Br)cc1S(=O)(=O)N1CCN=C1c1ccccc1	-0.359
CC(Sc1ncnc2ccccc12)C(=O)Nc1ccc2c(c1)OCO2 (stereo not shown)	-14
CCOC(=O)CNC(=O)c1cc(C)oc1C	-0.269
O=C(COc1cccc2cccnc12)N/N=C/c1ccc(O)cc1	2.96
O=C(NCc1cccc(Cl)c1)C1CCC(=O)N(CCN2CCOCC2)C1 (stereo not shown)	20.5

SMILES	hERG current change (%, negative = inhibition) at 10uM [%]
CC(C)=C1C2C=CC1C1C(=O)N(c3ccc4c(c3)OCO4)C(=O)C21 (stereo not shown)	17.7
NC(=O)c1ccc(NC(=O)C#Cc2ccccc2)cc1	13
CCOc1ccccc1NC(=O)NCCC1=CCCCC1	-43.7
O=C(Nc1cccc(Cl)c1)c1ccc(F)c(S(=O)(=O)NCc2cccs2)c1	-15.9
CCc1ccc(NC(=O)c2noc3c2CCc2ccccc2-3)cc1	-0.6
Cc1ccc(OCCN2C(=O)C(=O)c3cccc(C)c32)cc1	-0.255
O=C(COC(=O)Cc1cccs1)Nc1cccc(S(=O)(=O)N2CCOCC2)c1	0.0981
Cc1nn(CC(=O)N2CC(=O)Nc3ccccc32)c(C)c1[N+](=O)[O-]	26.7
Cc1cccc(CSc2cn(CC(=O)N3CCOCC3)c3ccccc23)c1	-25.8
COc1ccc(CCCc2nnc(SCC(=O)Nc3ccc(OC)cc3)o2)cc1	17.7
Cc1cc(=O)oc2cc(OCCSc3nnc(-c4ccccc4)o3)ccc12	-3.46
CCCc1cc(=O)[nH]c(SCC(=O)N(C)CC(=O)Nc2ccc(C)cc2)n1	-18.1
CCN(CCCNC(=O)C1CCC(=O)N1Cc1ccccc1Cl)c1cccc(C)c1 (stereo not shown)	-64.5
CN(c1ccc(OCC(=O)N2CCOCC2)cc1)S(=O)(=O)c1ccc(Cl)cc1	-12.3
Cc1ccc(C2NC(=O)c3ccccc3O2)cc1 (stereo not shown)	10.8
CN(c1ccccc1)S(=O)(=O)c1ccc(Cl)c(C(=O)Nc2nc3ccccc3[nH]2)c1	-1.14
O=C(Nc1c(C(=O)N2CCOCC2)cnn1-c1ccccc1Cl)c1ccco1	9.55
O=C(NCCS(=O)(=O)c1ccc(Cl)cc1)c1ccc(F)cc1	-9.19
CN(C)C(=O)CSc1nnc([C@H](Cc2ccccc2)NC(=O)OC(C)(C)C)o1	5.98
COc1ccccc1C1=NN(C(=S)Nc2ccccc2)C(c2ccco2)C1 (stereo not shown)	8.37
Cc1cccc(C)c1-n1nnnc1S(=O)(=O)Cc1ccccc1Cl	-18.2
O=C(O)c1ccc2c(c1)S(=O)(=O)N=C1CCCCCN12	14.2

SMILES	hERG current change (%, negative = inhibition) at 10uM [%]
CCC(C)(C)NC(=O)C(c1cccc(OC)c1OC)N(C(=O)CCC(=O)Nc1cc(C)on1)C(C)C (stereo not shown)	13.1
COc1cccc(NC(=O)COC(=O)CCS(=O)(=O)c2ccc(C)cc2)c1	0.124
COc1ccc(Nc2nc(C)c(-c3ccccc3)s2)cc1	14.9
COc1ccc(-c2[nH]ncc2CN2CCN(C(=O)c3cccs3)CC2)c(F)c1	-21.5
ONC(=Nc1ccccc1Cl)c1c(F)cccc1F	3.32
COc1ccc(CNn2c(-c3cccc(C)c3)nc3ccccc3c2=O)cc1OC	-73.6
Cc1cc(C)cc(N(C(=O)c2ccc3c(c2)OCO3)C2C=CS(=O)(=O)C2)c1 (stereo not shown)	-22.6
CCOC(=O)Nc1ccc([N+](=O)[O-])cc1OC	15.5
Cn1c(SCC(=O)Nc2ccc(Cl)cc2F)nnc1-c1ccco1	-59.4
CN(C)C(CNC(=O)c1cccc(OC(F)F)c1)c1ccco1 (stereo not shown)	-23.4
O=C(/C=C/c1cccc([N+](=O)[O-])c1)NCc1ccccc1	-23.2
COc1ccc(CCCC(=O)NCCc2ccccc2)c(C)c1	11.2
Nc1[nH]ncc1N=Nc1ccc(Cl)cc1	19
C=CCn1c(SCc2ccccc2C#N)nnc1-c1cc(Br)ccc1O	-11.3
COc1ccccc1-c1nc(C#N)c(N2CCCCCC2)o1	-13.6
Cl.OC(COc1ccc(Cl)cc1Cl)CN1CCc2ccccc2C1 (stereo not shown)	-58.6
CC(C)c1ccc(/C=C(\c2nc3ccccc3[nH]2)S(=O)(=O)c2ccccc2)cc1	8.64
Cc1nnc(NS(=O)(=O)c2ccc(Br)cc2)s1	26.7
COc1ccc(Cl)cc1NC(=O)[C@@H]1CCCN1C(=O)c1cccs1	-6.75
COc1ccc(NS(=O)(=O)c2ccc(N3CCOCC3)c(NC(=O)c3ccc(OC)cc3)c2)cc1	-1.38
COc1ccccc1N1CCN(c2cc(C)nc3nc(C)nn23)CC1	-57.6
CN1CCN(C(=O)C2CCC(C)(C(=O)O)C2(C)C)CC1 (stereo not shown)	4.09

SMILES	hERG current change (%, negative = inhibition) at 10uM [%]
CN1CCN(Cc2nc3ccccc3n2C)CC1CCO (stereo not shown)	3.83
Cc1cccc(CC(Cc2nc3ccccc3[nH]2)c2nc3ccccc3[nH]2)c1 (stereo not shown)	3.08
O=c1cc[nH]c2cc(C(F)(F)F)ccc12	20.8
CC(C)CNC(=O)c1cccc(NC(=O)c2ccccc2-c2ccccc2C(=O)O)c1	-2.36
CC(C)(C)c1ccc(S(=O)(=O)N2CCN(CC(=O)N3CC(=O)Nc4ccccc43)CC2)cc1	-36.2
CC1Cc2ccccc2N1C(=S)NC(=O)c1cccc(Br)c1 (stereo not shown)	10.7
CC1(C)Oc2ccc(C(=O)NC3CCCC3)cc2N(CC(=O)NC2CCCC2)C1=O	-14.4
COc1ccc(N2CCN(C(=O)Cc3ncc(C(F)(F)F)cc3Cl)CC2)cc1	-51.9
CC(Oc1ccccc1)c1ccnn1S(=O)(=O)c1ccccc1 (stereo not shown)	9.51
COc1ccccc1-c1nnc(SCC(=O)Nc2ccc3[nH]c(=O)[nH]c3c2)n1N	15.7
C[C@H](NC(=O)c1nc[nH]c1C(=O)N[C@@H](C)C(=O)OCc1ccccc1)C(=O)OCc1ccccc1	-11
COc1ccc(C(=O)NCCc2ccc(F)cc2)cc1OC	10.4
COc1ccccc1N1CCN(C(=O)COc2ccc(Cl)cc2Br)CC1	-18.1
CCCS(=O)(=O)N1CCCC(C(=O)c2cccc(Cl)c2)C1 (stereo not shown)	3.88
CC(C)(C)NC(=O)CSc1nc2scc(-c3ccccc3)c2c(=O)[nH]1	13.7
COc1cccc(C(=O)C2CCCN(Cc3c(C)n(C)n(-c4ccccc4)c3=O)C2)c1 (stereo not shown)	-21.2
O=C(CCCOc1ccc(Cl)cc1Cl)NNC(=O)C1CCC1	21.8
Cc1ccsc1/C=C1/NC(=O)N(Cc2ccc(F)cc2)C1=O	1.98
S=C([S-])N1CCCC1.[NH4+]	7.55
O=C(CSc1n[nH]c(-c2cccs2)n1)NCCc1ccccc1	-13.4
COC(=O)C1CCN(C(=O)COC(=O)c2oc3ccc(OC)cc3c2C)CC1	-17.3
Cc1ccc(N(C(=O)c2ccc(Br)o2)C2C=CS(=O)(=O)C2)cc1 (stereo not shown)	-14.9
